Measurements taken from PubChem BioAssay AID485364 (National Center for Advancing Translational Sciences (NCATS), 2010).
“And” between values parts separate entries of the source, which are not always exact repeats. Equal entries are not always repeated. Among all 360,000 compounds or so, about 11,000 (3.1%) were called active. Inconclusive means that the source gave no clear call. Such entries were picked first, then a sample of the others. Calls follow the shape of the dose curve; as a rule, active = well fitted inhibition curve with a large enough effect; inconclusive = small, poorly fitted or top-dose-only effect; inactive = no such curve, though single readings can be large or run the other way. Where the call is inconclusive, the potency comes from a doubtful curve fit.

biological target: Schistosoma mansoni thioredoxin glutathione reductase (TGR) (UniProt Q962Y6); experiment: qHTS Assay for the Inhibitors of Schistosoma Mansoni Peroxiredoxins; settings: purified TGR, DTNB reduction, TNB absorbance 405 nm; series mostly up to 114 µM; also: nearly all actives have a fitted effect of over 60% in size
Procedure, shortened: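 Kinetic colorimetric format: TGR-catalysed, NADPH-driven DTNB reduction monitored via TNB absorbance. Enzyme dispensed at 20 nM; compound exposure 15 min at room temperature before reaction start.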
Potency is read from the fitted curve at half-maximal effect; tags tell the direction and shape of the fitted curve.

SMILES	Potency
O=C(O)CSc1ccc(S(=O)(=O)N2CCCC2)cn1	active: 50.1 µM
C=CCOC(=O)C1=C(C)NC(=O)NC1c1ccc(N(C)C)cc1 (stereo not drawn)	active: 44.7 µM
O=C(NCC12CC3CC(CC(C3)C1)C2)c1cc2nc(-c3ccc(F)cc3)cc(C(F)(F)F)n2n1	inactive
CCCCCC(=O)Nc1cccc(-c2nc3ncccc3o2)c1	inactive
CNC(=O)COc1ccc(Nc2nnc(-c3ccc(C)c(S(=O)(=O)NC(C)(C)C)c3)c3ccccc23)cc1	inactive
O=C1CCC(C(=O)Nc2cc(C(F)(F)F)ccc2-n2cncn2)=NN1	inactive
Cc1ccc(-c2c(C(=O)N/N=C/c3ccc(C)o3)nnn2-c2nonc2N)cc1	inconclusive: 89.1 µM [inhibitor, single point]
Cc1sc2ncn(CC(=O)NCc3ccco3)c(=O)c2c1-c1ccccc1	inconclusive: 15.8 µM [inhibitor, full curve, poor fit]
CCCCC(=O)N/N=C/c1c(O)n(Cc2ccc(F)cc2)c(=O)[nH]c1=O	inconclusive: 25.1 µM [inhibitor, full curve]
Cc1cnc(NC(=O)Cc2ccccc2Cl)s1	inactive
COc1cc(/C=N/Nc2ncc(C(F)(F)F)cc2Cl)cc(OC)c1OC	inactive
Cc1ccc(NS(=O)(=O)c2ccc(N3C(=O)CCC3=O)cc2)cc1	inconclusive: 3.16 µM [inhibitor, full curve, poor fit]
CCCN1CCN(CC2=C(C(=O)OCC)C(c3cccc(OC)c3OC)NC(=O)N2)CC1 (stereo not drawn)	active: 89.1 µM
O=C1CC(c2ccco2)CC(O)=C1C=Nc1ccc(Br)cc1 (stereo not drawn)	inconclusive: 44.7 µM [inhibitor, partial curve]
Cc1ccc2nc3n(c(=O)c2c1)CCCCC3	inactive
COC(=O)Cn1c(-c2ccc(OC)cc2)c(-c2ccc(OC)cc2)nnc1=O	active: 79.4 µM
CCOC(=O)C1(Cc2ccccc2C)CCCN(C(=O)c2ccc(CSC)o2)C1 (stereo not drawn)	inconclusive: 31.6 µM [inhibitor, single point]
Cc1ccc(CNC(=O)Cn2ccc3ccccc3c2=O)o1	active: 31.6 µM
CCCCC(c1nnnn1C(C)C)N1CCN(C(=O)c2ccco2)CC1 (stereo not drawn)	inconclusive: 63.1 µM [inhibitor, partial curve]
Cc1cc(C)cc(NC(=O)c2ccccc2CC[N+](=O)[O-])c1	active: 39.8 µM
C=CCSc1nnc2c(n1)OC=Nc1ccccc1-2	inconclusive: 35.5 µM [inhibitor, partial curve]
Cc1ccccc1Nc1nc(N)nc(COC(=O)c2ccc([N+](=O)[O-])o2)n1	inconclusive: 39.8 µM [inhibitor, partial curve]
COc1ccc(CNC(=O)c2ccc(CS(=O)Cc3ccc(Cl)cc3)o2)cc1 (stereo not drawn)	inconclusive: 44.7 µM [inhibitor, partial curve]

SMILES	Potency
CS(=O)(=O)N(Cc1cccc(CN(C(C(=O)O)c2ccccc2)S(C)(=O)=O)c1)C(C(=O)O)c1ccccc1 (stereo not drawn)	active: 5.01 µM
COc1cc(C(c2c(O)c3ccccc3oc2=O)c2c(C)n(C)n(-c3ccccc3)c2=O)ccc1O (stereo not drawn)	inconclusive: 15.8 µM [inhibitor, partial curve] and inconclusive: 14.1 µM [inhibitor, partial curve]
CCOc1ccc(C2NC(=S)NC3=C2CCc2ccccc23)cc1 (stereo not drawn)	inconclusive: 63.1 µM [inhibitor, partial curve]
CCCCC1C2C(=O)N(c3ccc(C)cc3)C(=O)C2ON1c1ccccc1 (stereo not drawn)	inconclusive: 50.1 µM [inhibitor, partial curve]
COC(=O)c1ccc(NC(=O)c2nn(C)c3c2COc2ccccc2-3)cc1	inconclusive: 89.1 µM [inhibitor, single point]
N#CCN1C(=O)C2CCCN2c2ccc(S(=O)(=O)N3CCOCC3)cc21 (stereo not drawn)	inconclusive: 7.94 µM [inhibitor, partial curve]
CCOc1ccc(NC(=O)CN2CCN(CC(=O)c3ccc(OC)c(OC)c3)CC2)cc1	active: 31.6 µM
COC(CNC(=O)c1ccc(CS(=O)(=O)c2ccccc2)o1)OC	active: 17.8 µM
Cc1c(Cl)cccc1NC(=O)CCC(=O)N/N=C/c1ccc[nH]1	inconclusive: 63.1 µM [inhibitor, partial curve, poor fit]
CS(=O)(=O)N1N=C(c2ccco2)CC1c1ccc(Cl)cc1 (stereo not drawn)	inconclusive: 50.1 µM [inhibitor, partial curve]
CCn1cc(C(=O)NCc2ccco2)c2cc(OC)c(OC)cc2c1=O	inconclusive: 8.91 µM [inhibitor, full curve]
CC(OC(=O)c1cccc(-n2cnnn2)c1)C(=O)c1ccccc1 (stereo not drawn)	inactive
C[c-]1[c-](C)[c-](C)[c-](C)[c-]1C.[Fe].c1cc2nccc(N3CCCC3)[c-]2c1 (stereo not drawn)	inconclusive: 0.1 µM [inhibitor, full curve, poor fit]
Cc1cccc(C(=O)Nc2ccc3c(c2)CC2(C(=O)N(C)C(=O)N(C)C2=O)C2CCCN32)c1 (stereo not drawn)	inconclusive: 44.7 µM [inhibitor, partial curve]
CCOc1ccccc1CN1CCNC(=O)C1CC(=O)N(C)CCC1CCOCC1 (stereo not drawn)	inconclusive: 44.7 µM [inhibitor, partial curve]
CC(=O)Nc1ccc(C=C(C(C)=O)C(C)=O)cc1	inconclusive: 14.1 µM [inhibitor, partial curve]
Clc1ccc(OCCn2c(-c3ccco3)nc3ccccc32)cc1	inconclusive: 44.7 µM [inhibitor, partial curve]
CCN1CCCC1CN(Cc1cc2cc(C)cc(C)c2[nH]c1=O)C(=O)Nc1ccccc1OC (stereo not drawn)	inconclusive: 44.7 µM [inhibitor, partial curve]
CC(=O)O[C@H]1C2OC(=O)C(C)=C2[C@@H]2OC(=O)[C@]3(CCC4OC41C)OC23 (stereo partly drawn)	inconclusive: 56.2 µM [inhibitor, partial curve]
CC(C)c1nc2cc(C(=O)N3CCNC(=O)C3c3cccc(F)c3)ccc2o1 (stereo not drawn)	inactive
CC[C@H](C)C(=O)O[C@H]1C[C@@H](C)C=C2C=C[C@H](C)[C@H](CC[C@@H]3C[C@@H](O)CC(=O)O3)[C@H]21	inactive and inconclusive: 44.7 µM [inhibitor, partial curve]
COCc1cc(C)nc(SCC(=O)Nc2cc(C(F)(F)F)ccc2N2CCOCC2)c1C#N	inconclusive: 3.55 µM [inhibitor, partial curve, poor fit]
C=CC[n+]1c(-c2ccc(OC)cc2)csc1NNC(=O)Nc1ccccc1	inactive

SMILES	Potency
CCNC(=S)Nc1cc(C)ccn1	inconclusive: 44.7 µM [inhibitor, partial curve]
O=C(O)CCNS(=O)(=O)c1ccc2ccccc2c1	inactive
O=C(N/N=C/c1ccc(N2CCOCC2)s1)c1ccc(NS(=O)(=O)c2cccs2)cc1	inconclusive: 14.1 µM [inhibitor, single point]
COc1ccc(C2=NN(c3nc(-c4ccccc4)c(CC(=O)O)s3)C(c3ccco3)C2)cc1 (stereo not drawn)	active: 20 µM
Cc1ccc(NC(=O)CSc2nnc(-c3ccco3)o2)cc1	active: 79.4 µM
COc1ccccc1/C=N/Nc1cc(C)nc2ccc(C)cc12	inconclusive: 0.126 µM [inhibitor, full curve, poor fit]
CC(C)(C)c1ccc(CCC(CC(=O)O)CC(=O)O)cc1	inconclusive: 2.24 µM [inhibitor, full curve]
O=C(NCc1cccs1)c1ccc(CS(=O)Cc2cccc(Cl)c2)o1 (stereo not drawn)	inconclusive: 50.1 µM [inhibitor, partial curve]
CC(C)C(C(=O)NCc1ccco1)N(Cc1ccco1)C(=O)CNS(=O)(=O)c1ccc(F)cc1 (stereo not drawn)	inconclusive: 44.7 µM [inhibitor, partial curve]
C=CCn1c(-c2ccccc2)nc(=S)c2c1CCCC2	inconclusive: 44.7 µM [inhibitor, partial curve]
O=C1NCCN1C(=O)c1ccco1	inconclusive: 17.8 µM [inhibitor, full curve, poor fit]
CN1CCN(C(=O)C2CCC(CNS(=O)(=O)c3cccc4cccnc34)CC2)CC1 (stereo not drawn)	inactive
CC1Cc2ccccc2N1S(=O)(=O)c1cccc(C(=O)OCC(=O)NCc2ccco2)c1 (stereo not drawn)	inconclusive: 44.7 µM [inhibitor, partial curve]
CCCOc1ccc(NC(=O)C2CC(=O)N3CCCN=C3S2)cc1 (stereo not drawn)	inconclusive: 44.7 µM [inhibitor, partial curve]
O=C(Cn1ccc([N+](=O)[O-])n1)N1CCCc2ccccc21	inactive
COc1ccc(C(=O)N2CCCC(CCC(=O)NCc3ccccc3F)C2)c(OC)n1 (stereo not drawn)	inactive
CC(C)COP(=O)(c1ccc(N(C)C)cc1)C(O)c1ccccn1 (stereo not drawn)	inconclusive: 39.8 µM [inhibitor, full curve, poor fit]
CN1CCc2c(sc3c2C(=O)NC(c2ccc(-c4ccc(Cl)cc4)o2)N3)C1 (stereo not drawn)	inconclusive: 39.8 µM [inhibitor, partial curve]
CN(C)c1ccc(CNn2cnnc2SCc2ccccc2F)cc1	inactive
CCN(CC)C(=O)C1CCN(C(=O)c2cnn(-c3ccccc3)c2-n2cccc2)CC1	inconclusive: 3.98 µM [inhibitor, single point]
COCCCn1c(SCC(=O)N2CCCC(C)C2)nnc1-c1ccco1 (stereo not drawn)	inconclusive: 50.1 µM [inhibitor, partial curve]
COc1ccc2cc(C(c3nnnn3CCc3ccccc3)N3CCCC(C)C3)c(=O)[nH]c2c1 (stereo not drawn)	inconclusive: 89.1 µM [inhibitor, single point]
